Some of the results follow. At the low end of the ranking, values are background and their order means little.

The assay has as its target SIX1 homeodomain (reference allele) (UniProt Q15475). The assay can be described thus: universal protein binding microarray. Conditions: Universal all-10-mer PBM (8x60K, AMADID 030236), 300 nM GST-tagged protein, Alexa Fluor 488 anti-GST; buffer, salt, pH and temperature not stated; high values mean tight binding; most listed sequences are background and not binding sites; double strand, one strand shown.
As to ACAGTAAC, the binding signal was -0.189 E-score.

For the sequence CGGGTCAC, the binding signal is 0.145 E-score.

In the case of CGCCTCAC, the binding signal is -0.0934 E-score.

Regarding CCCCTTCG, the binding signal is -0.0216 E-score.

AGGGCGTG: the binding signal is -0.139 E-score.

Regarding GACTCAAC, the binding signal is -0.164 E-score.

For CAGTACTC, the binding signal is -0.0438 E-score.

In the case of GATCTGGC, the binding signal is 0.295 E-score.

As for TAGGTGAA, the binding signal is -0.0689 E-score.

In the case of AGCTCGAG, the binding signal was found to be 0.0452 E-score.

On to ACACTCTC, for which the binding signal is 0.104 E-score.

As to ACTATGTG, the binding signal amounted to 0.0949 E-score.

Turning to GAAACTGC, the binding signal was -0.212 E-score.

For CTCGCAGA, the binding signal is -0.111 E-score.

Regarding CAAGTAGG, the binding signal was -0.127 E-score.

Consider ATGGGTTC, for which the binding signal is 0.0687 E-score.

Regarding AAGTTTGT, the binding signal is -0.237 E-score.

For CTCCGGGA, the binding signal was 0.0288 E-score.

With ATTACGAC, the binding signal came out at 0.0413 E-score.

For the sequence ATCTTACA, the binding signal came out at 0.205 E-score.

CCCGAGAA: the binding signal is -0.0488 E-score.

Consider ACGAGAGT, for which the binding signal is -0.0686 E-score.

As to ATCCCGGG, the binding signal worked out at 0.345 E-score.

For the sequence TCGCCAAA, the binding signal was -0.248 E-score.

Regarding GAGTGGCA, the binding signal is -0.0355 E-score.

ATCGGTAA: the binding signal amounted to 0.145 E-score.

Consider CTCAACTC, for which the binding signal was -0.00632 E-score.

Consider AGTGGGGC, for which the binding signal is -0.0576 E-score.

In the case of CACACCCA, the binding signal was 0.0695 E-score.

In the case of AGTCACCA, the binding signal was -0.22 E-score.

On to AGTTTTGA, for which the binding signal is -0.112 E-score.

As to AATATTAG, the binding signal worked out at 0.0388 E-score.

As to ATACATCC, the binding signal turned out to be 0.365 E-score.

Consider ATCACAAC, for which the binding signal was 0.151 E-score.

For CTCTTAAA, the binding signal was -0.248 E-score.

For the sequence GGGGGCCA, the binding signal was -0.0937 E-score.

Take GTGCTTGA: the binding signal is 0.0198 E-score.

Consider AACCAACT, for which the binding signal is -0.174 E-score.

In the case of AGCAGCAT, the binding signal is -0.126 E-score.

With CGCAGTTA, the binding signal was -0.078 E-score.

As for GAAGGCAC, the binding signal was -0.247 E-score.

Consider TCCGTAGA, for which the binding signal is -0.142 E-score.

Regarding AACGCAGT, the binding signal is -0.114 E-score.

For the sequence AAAAGTGC, the binding signal was -0.277 E-score.

GTGTAAGA: the binding signal is 0.134 E-score.

AAAACACT: the binding signal was -0.197 E-score.

For the sequence GGGTTAAC, the binding signal is 0.0375 E-score.

For the sequence CTAATGAA, the binding signal was -0.146 E-score.

For AGTATCAA, the binding signal came to 0.444 E-score.

As to ATAAAAAC, the binding signal is -0.145 E-score.

In the case of ACGCGACC, the binding signal is -0.0743 E-score.

For the sequence CGGTAACA, the binding signal is -0.192 E-score.

Consider TAGTACGA, for which the binding signal worked out at 0.0562 E-score.

In the case of CACATGCA, the binding signal is -0.0401 E-score.

Take GAGCCCCC: the binding signal worked out at 0.0111 E-score.

Regarding CATAGGCC, the binding signal is -0.225 E-score.

On to CAAACAAC, for which the binding signal is -0.138 E-score.

With AACCGGGC, the binding signal is -0.0175 E-score.

For AATTGACC, the binding signal was -0.0326 E-score.

As to CGCCGAGC, the binding signal was -0.0963 E-score.

In the case of CAAAGATA, the binding signal came to 0.253 E-score.

In the case of GTTGTCAA, the binding signal was -0.31 E-score.

Take CGGTACAA: the binding signal amounted to 0.00225 E-score.

As to ATTGCCCA, the binding signal is -0.0658 E-score.

Take CCGTAACG: the binding signal was -0.234 E-score.

Turning to ATGGTTGG, the binding signal was -0.0811 E-score.

Take CTTCTTGA: the binding signal is -0.0116 E-score.

Take CCGTGTCG: the binding signal is 0.111 E-score.

ATGTTGGA: the binding signal was found to be 0.177 E-score.

On to GCTAGCCA, for which the binding signal was -0.264 E-score.

In the case of ATGATATA, the binding signal was found to be 0.414 E-score.

With ATGCTTAA, the binding signal was found to be 0.064 E-score.

For CAGAAGAG, the binding signal is -0.171 E-score.

For CCGTCCAA, the binding signal is -0.116 E-score.

As to CCCTGAGC, the binding signal came to 0.178 E-score.

CATAGGCA: the binding signal is -0.0286 E-score.

For the sequence CATAGATA, the binding signal was 0.259 E-score.

Turning to CAGGTCGG, the binding signal was determined as 0.0399 E-score.

In the case of AGACCCAG, the binding signal amounted to 0.116 E-score.

For AAATCCTG, the binding signal was -0.15 E-score.

Consider CACATTGC, for which the binding signal was -0.172 E-score.

For AAGAAAAT, the binding signal was -0.0849 E-score.

As to AACGCTGT, the binding signal is -0.289 E-score.

Take CAGCTTAG: the binding signal is -0.0222 E-score.

Consider TATTGTAA, for which the binding signal is -0.0278 E-score.

CGGAATCA: the binding signal worked out at 0.0326 E-score.

For the sequence CACAAAAA, the binding signal was -0.135 E-score.

Turning to CATACCTC, the binding signal was 0.104 E-score.

TGCTAGCA: the binding signal came to 0.0904 E-score.

For TAACAAGA, the binding signal is -0.207 E-score.

As for AGCGGACG, the binding signal was -0.16 E-score.

Turning to ACCGTGCC, the binding signal is -0.221 E-score.

For AAAGTTTG, the binding signal is -0.223 E-score.

Turning to ACCGTGCG, the binding signal was 0.0264 E-score.

For the sequence AGTTACAC, the binding signal was determined as 0.145 E-score.

Consider CAGACAAC, for which the binding signal was -0.192 E-score.

Consider CCTGGTGA, for which the binding signal is 0.0511 E-score.

As for AACGGTCT, the binding signal is -0.101 E-score.

Turning to ACGAAAAC, the binding signal worked out at 0.00501 E-score.

Turning to TCCCCGCA, the binding signal amounted to 0.148 E-score.

As to GCACGAAA, the binding signal is -0.155 E-score.

For the sequence TAAATCTA, the binding signal was -0.0575 E-score.

CTCTCAAC: the binding signal was -0.0654 E-score.

For ACGTATGG, the binding signal is -0.0608 E-score.

TCCTCCGA: the binding signal turned out to be 0.144 E-score.

With AAGTATGC, the binding signal was -0.148 E-score.

With AAACCCCC, the binding signal worked out at 0.102 E-score.

In the case of GGCTCTAC, the binding signal was -0.0926 E-score.

With AGGAGTGG, the binding signal was -0.0587 E-score.

For ACGGTAGT, the binding signal was -0.0711 E-score.

In the case of CTGCTACA, the binding signal was -0.0404 E-score.

As to AATTAAAC, the binding signal came out at 0.0609 E-score.

With TAAATTAA, the binding signal is -0.0668 E-score.

For the sequence AGGCGCCA, the binding signal is -0.178 E-score.

Consider ACCCCAGC, for which the binding signal stood at 0.226 E-score.

On to GCCATTCC, for which the binding signal is -0.134 E-score.

For GCCAAAGA, the binding signal is -0.218 E-score.

Take GAAAGAAA: the binding signal was -0.142 E-score.

Take GAAGCTCA: the binding signal was -0.095 E-score.

Consider GACTGGAA, for which the binding signal is -0.163 E-score.

With ACTGGGAC, the binding signal is -0.17 E-score.

Turning to GTTGTAGA, the binding signal was -0.192 E-score.

Consider CTCCGGAC, for which the binding signal was -0.0718 E-score.

Take AAGGTTTA: the binding signal was 0.0254 E-score.

In the case of TGCGAGCA, the binding signal was -0.0944 E-score.

As to GGGCGATA, the binding signal was 0.347 E-score.

Turning to GAGACGCA, the binding signal came out at 0.139 E-score.

Take CTAGTGCC: the binding signal was -0.19 E-score.

For GTTGACCA, the binding signal was -0.19 E-score.

As to ATTCCCTA, the binding signal is -0.0192 E-score.

Take ATGTGCTC: the binding signal was -0.138 E-score.

On to CCCAAGGG, for which the binding signal is -0.141 E-score.

As to GTAGTTTA, the binding signal was -0.0688 E-score.

AACAACTG: the binding signal is -0.258 E-score.

Take ATTGGGTG: the binding signal was found to be 0.262 E-score.

For AGAGTGCT, the binding signal is -0.104 E-score.

As to GGCAGTAA, the binding signal was -0.056 E-score.

In the case of CGGACCTA, the binding signal was -0.054 E-score.

ATACAGTC: the binding signal amounted to 0.163 E-score.

For AGTGTATA, the binding signal was determined as 0.291 E-score.

As to CGCAAATC, the binding signal was -0.178 E-score.

Turning to ACGTTCCT, the binding signal is -0.127 E-score.

For GTCGACCA, the binding signal was -0.101 E-score.

Consider AAACGCCG, for which the binding signal was -0.206 E-score.

Regarding AGGCTCTA, the binding signal is -0.163 E-score.

As to AAGACACG, the binding signal is -0.0172 E-score.

For CTTAAAGA, the binding signal is -0.117 E-score.

TTACACAA: the binding signal is -0.0113 E-score.

As to GTTAGTGA, the binding signal is -0.0842 E-score.

Take AAGCCAGC: the binding signal is -0.091 E-score.

Take CAGTACCC: the binding signal was -0.0476 E-score.

As to ATTTGGAG, the binding signal was -0.0342 E-score.

ACGACTCA: the binding signal was -0.117 E-score.

Consider CAACATAA, for which the binding signal is -0.0681 E-score.

With GGCGACAC, the binding signal was found to be 0.143 E-score.

As to CCGGTCAA, the binding signal was -0.098 E-score.

ATTTCCTC: the binding signal was -0.213 E-score.

For GCGGTAAC, the binding signal is -0.107 E-score.

As for GAAGTGAA, the binding signal is -0.237 E-score.

As for GCCCCTGA, the binding signal was -0.00066 E-score.

For ATTACAAC, the binding signal was -0.0801 E-score.

For ATGTTAAG, the binding signal was -0.182 E-score.

With AATATAAC, the binding signal turned out to be 0.0555 E-score.

On to AGGTCACC, for which the binding signal was -0.274 E-score.

In the case of GGGCTCTA, the binding signal is -0.0508 E-score.

Turning to ATCCCGAA, the binding signal worked out at 0.252 E-score.

ATTAATCC: the binding signal came out at 0.316 E-score.

With CGCCCACA, the binding signal is -0.156 E-score.

On to AAGTTGGT, for which the binding signal was -0.0338 E-score.

With TATCTTAA, the binding signal stood at 0.182 E-score.

With CTTTAGCC, the binding signal is -0.0401 E-score.

Regarding CGTGTTAC, the binding signal was -0.0137 E-score.

(Values after paper PMC10668032.)
